{
  "source": "the supplement of paper PMC8728848",
  "assay_in_all_cases": "glycan array binding signal (z-score within array); higher = stronger binding",
  "conditions_in_all_cases": "glycan notation: IUPAC condensed, linker removed",
  "key": {"[1]": {"molecular_target": "Fuc(a1-3)[Gal(b1-4)]GlcNAc6S", "method_in_brief": "(§1)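 Columns mapping to the same glycan were averaged after glycan names were converted to IUPAC-condensed notation. The data come from 3228 arrays in the Consortium for Functional Glycomics database, limited to those with an available protein sequence. Binding is reported as a within-array Z-score averaged across arrays of one protein sequence and across linkers.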"}, "[2]": {"molecular_target": "Fuc(a1-3)[Gal3S(b1-4)]Glc", "method_in_brief": "as §1"}, "[3]": {"molecular_target": "Fuc(a1-3)[Gal3S(b1-4)]GlcNAc", "method_in_brief": "as §1"}, "[4]": {"molecular_target": "Fuc(a1-3)[Gal3S(b1-4)]GlcNAc(b1-3)Gal", "method_in_brief": "as §1"}, "[5]": {"molecular_target": "Fuc(a1-3)[Gal3S(b1-4)]GlcNAc6S", "method_in_brief": "as §1"}, "[6]": {"molecular_target": "Fuc(a1-3)[Gal3S(b1-4)]GlcNAc6S(b1-3)Gal(b1-4)Glc", "method_in_brief": "as §1"}, "[7]": {"molecular_target": "Fuc(a1-3)[Gal6S(b1-4)]GlcNAc(b1-3)Gal(b1-4)Glc", "method_in_brief": "as §1"}, "[8]": {"molecular_target": "Fuc(a1-3)[GalNAc(b1-4)]GlcNAc", "method_in_brief": "as §1"}, "[9]": {"molecular_target": "Fuc(a1-3)[GalNAc(b1-4)]GlcNAc6S", "method_in_brief": "as §1"}, "Fuc(a1-4)GlcNAc": {"molecular_target": "Fuc(a1-4)GlcNAc", "method_in_brief": "as §1"}, "Fuc(a1-6)GlcNAc": {"molecular_target": "Fuc(a1-6)GlcNAc", "method_in_brief": "as §1"}, "Fuc(b1-3)GlcNAc": {"molecular_target": "Fuc(b1-3)GlcNAc", "method_in_brief": "as §1"}, "Gal(a1-2)Gal": {"molecular_target": "Gal(a1-2)Gal", "method_in_brief": "as §1"}, "Gal(a1-3)Gal": {"molecular_target": "Gal(a1-3)Gal", "method_in_brief": "as §1"}, "Gal(a1-3)Gal(b1-3)GlcNAc": {"molecular_target": "Gal(a1-3)Gal(b1-3)GlcNAc", "method_in_brief": "as §1"}, "[10]": {"molecular_target": "Gal(a1-3)Gal(b1-3)GlcNAc(b1-2)Man", "method_in_brief": "as §1"}, "[11]": {"molecular_target": "Gal(a1-3)Gal(b1-3)GlcNAc(b1-2)Man(a1-3)[Gal(a1-3)Gal(b1-3)GlcNAc(b1-2)Man(a1-6)]Man(b1-4)GlcNAc(b1-4)GlcNAc", "method_in_brief": "as §1"}, "[12]": {"molecular_target": "Gal(a1-3)Gal(b1-3)GlcNAc(b1-3)GalNAc", "method_in_brief": "as §1"}, "[13]": {"molecular_target": "Gal(a1-3)Gal(b1-3)GlcNAc(b1-6)GalNAc", "method_in_brief": "as §1"}, "[14]": {"molecular_target": "Gal(a1-3)Gal(b1-3)[Fuc(a1-4)]GlcNAc(b1-2)Man(a1-3)[Gal(a1-3)Gal(b1-3)[Fuc(a1-4)]GlcNAc(b1-2)Man(a1-6)]Man(b1-4)GlcNAc(b1-4)GlcNAc", "method_in_brief": "as §1"}, "Gal(a1-3)Gal(b1-4)Glc": {"molecular_target": "Gal(a1-3)Gal(b1-4)Glc", "method_in_brief": "as §1"}, "Gal(a1-3)Gal(b1-4)GlcNAc": {"molecular_target": "Gal(a1-3)Gal(b1-4)GlcNAc", "method_in_brief": "as §1"}, "[15]": {"molecular_target": "Gal(a1-3)Gal(b1-4)GlcNAc(b1-2)Man", "method_in_brief": "as §1"}, "[16]": {"molecular_target": "Gal(a1-3)Gal(b1-4)GlcNAc(b1-2)Man(a1-3)[Gal(a1-3)Gal(b1-4)GlcNAc(b1-2)Man(a1-6)]Man(b1-4)GlcNAc(b1-4)GlcNAc", "method_in_brief": "as §1"}, "[17]": {"molecular_target": "Gal(a1-3)Gal(b1-4)GlcNAc(b1-3)GalNAc", "method_in_brief": "as §1"}, "[18]": {"molecular_target": "Gal(a1-3)Gal(b1-4)GlcNAc(b1-6)GalNAc", "method_in_brief": "as §1"}, "[19]": {"molecular_target": "Gal(a1-3)Gal(b1-4)[Fuc(a1-3)]GlcNAc", "method_in_brief": "as §1"}, "[20]": {"molecular_target": "Gal(a1-3)Gal(b1-4)[Fuc(a1-3)]GlcNAc(b1-2)Man(a1-3)[Gal(a1-3)Gal(b1-4)[Fuc(a1-3)]GlcNAc(b1-2)Man(a1-6)]Man(b1-4)GlcNAc(b1-4)GlcNAc", "method_in_brief": "as §1"}, "Gal(a1-3)GalNAc": {"molecular_target": "Gal(a1-3)GalNAc", "method_in_brief": "as §1"}, "[21]": {"molecular_target": "Gal(a1-3)[Gal(a1-4)]Gal(b1-4)GlcNAc", "method_in_brief": "as §1"}, "[22]": {"molecular_target": "Gal(a1-4)Gal(b1-3)GlcNAc(b1-2)Man(a1-3)[Gal(a1-4)Gal(b1-3)GlcNAc(b1-2)Man(a1-6)]Man(b1-4)GlcNAc(b1-4)GlcNAc", "method_in_brief": "as §1"}, "Gal(a1-4)Gal(b1-4)Glc": {"molecular_target": "Gal(a1-4)Gal(b1-4)Glc", "method_in_brief": "as §1"}, "Gal(a1-4)Gal(b1-4)GlcNAc": {"molecular_target": "Gal(a1-4)Gal(b1-4)GlcNAc", "method_in_brief": "as §1"}, "[23]": {"molecular_target": "Gal(a1-4)Gal(b1-4)GlcNAc(b1-2)Man(a1-3)[Gal(a1-4)Gal(b1-4)GlcNAc(b1-2)Man(a1-6)]Man(b1-4)GlcNAc(b1-4)GlcNAc", "method_in_brief": "as §1"}, "[24]": {"molecular_target": "Gal(a1-4)Gal(b1-4)GlcNAc(b1-3)Gal(b1-4)Glc", "method_in_brief": "as §1"}, "Gal(a1-4)GlcNAc": {"molecular_target": "Gal(a1-4)GlcNAc", "method_in_brief": "as §1"}, "Gal(a1-6)Glc": {"molecular_target": "Gal(a1-6)Glc", "method_in_brief": "as §1"}, "Gal(b1-2)Gal": {"molecular_target": "Gal(b1-2)Gal", "method_in_brief": "as §1"}, "Gal(b1-3)Gal": {"molecular_target": "Gal(b1-3)Gal", "method_in_brief": "as §1"}, "Gal(b1-3)Gal(b1-4)GlcNAc": {"molecular_target": "Gal(b1-3)Gal(b1-4)GlcNAc", "method_in_brief": "as §1"}, "[25]": {"molecular_target": "Gal(b1-3)Gal(b1-4)GlcNAc(b1-2)Man(a1-3)[Gal(b1-3)Gal(b1-4)GlcNAc(b1-2)Man(a1-6)]Man(b1-4)GlcNAc(b1-4)GlcNAc", "method_in_brief": "as §1"}, "Gal(b1-3)GalNAc": {"molecular_target": "Gal(b1-3)GalNAc", "method_in_brief": "as §1"}, "[26]": {"molecular_target": "Gal(b1-3)GalNAc(a1-3)[Fuc(a1-2)]Gal(b1-4)Glc", "method_in_brief": "as §1"}, "[27]": {"molecular_target": "Gal(b1-3)GalNAc(a1-3)[Fuc(a1-2)]Gal(b1-4)GlcNAc", "method_in_brief": "as §1"}, "Gal(b1-3)GalNAc(b1-3)Gal": {"molecular_target": "Gal(b1-3)GalNAc(b1-3)Gal", "method_in_brief": "as §1"}},
  "note": "Some of the results follow.",
  "data": [
    {"binder": "CLEC5A (Homo sapiens), Q9NY25 (protein) MNWHMIISGLIVVVLKVVGMTLFLLYFPQIFNKSNDGFTTTRSYGTVSQIFGSSSPSPNGFITTRSYGTVCPKDWEFYQARCFFLSTSESSWNESRDFCKGKGSTLAIVNTPEKLKFLQDITDAEKYFIGLIYHREEKRWRWINNSVFNGNVTNQNQNFNCATIGLTKTFDAASCDISYRRICEKNAK", "values": [
      {"measurement": "glycan array binding signal (z-score)", "setting": "[1]", "value": 1.18},
      {"measurement": "glycan array binding signal (z-score)", "setting": "[2]", "value": -0.243},
      {"measurement": "glycan array binding signal (z-score)", "setting": "[3]", "value": -0.166},
      {"measurement": "glycan array binding signal (z-score)", "setting": "[4]", "value": -0.32},
      {"measurement": "glycan array binding signal (z-score)", "setting": "[5]", "value": -0.068},
      {"measurement": "glycan array binding signal (z-score)", "setting": "[6]", "value": 0.162},
      {"measurement": "glycan array binding signal (z-score)", "setting": "[7]", "value": -0.127},
      {"measurement": "glycan array binding signal (z-score)", "setting": "[8]", "value": -0.093},
      {"measurement": "glycan array binding signal (z-score)", "setting": "[9]", "value": -0.137},
      {"measurement": "glycan array binding signal (z-score)", "setting": "Fuc(a1-4)GlcNAc", "value": 11.1},
      {"measurement": "glycan array binding signal (z-score)", "setting": "Fuc(a1-6)GlcNAc", "value": 0.933},
      {"measurement": "glycan array binding signal (z-score)", "setting": "Fuc(b1-3)GlcNAc", "value": -0.337},
      {"measurement": "glycan array binding signal (z-score)", "setting": "Gal(a1-2)Gal", "value": 0.202},
      {"measurement": "glycan array binding signal (z-score)", "setting": "Gal(a1-3)Gal", "value": 0.778},
      {"measurement": "glycan array binding signal (z-score)", "setting": "Gal(a1-3)Gal(b1-3)GlcNAc", "value": -0.035},
      {"measurement": "glycan array binding signal (z-score)", "setting": "[10]", "value": -0.145},
      {"measurement": "glycan array binding signal (z-score)", "setting": "[11]", "value": 0.889},
      {"measurement": "glycan array binding signal (z-score)", "setting": "[12]", "value": 0.061},
      {"measurement": "glycan array binding signal (z-score)", "setting": "[13]", "value": 0.047},
      {"measurement": "glycan array binding signal (z-score)", "setting": "[14]", "value": -0.152},
      {"measurement": "glycan array binding signal (z-score)", "setting": "Gal(a1-3)Gal(b1-4)Glc", "value": -0.108},
      {"measurement": "glycan array binding signal (z-score)", "setting": "Gal(a1-3)Gal(b1-4)GlcNAc", "value": -0.039},
      {"measurement": "glycan array binding signal (z-score)", "setting": "[15]", "value": -0.219},
      {"measurement": "glycan array binding signal (z-score)", "setting": "[16]", "value": 0.478},
      {"measurement": "glycan array binding signal (z-score)", "setting": "[17]", "value": 0.073},
      {"measurement": "glycan array binding signal (z-score)", "setting": "[18]", "value": -0.038},
      {"measurement": "glycan array binding signal (z-score)", "setting": "[19]", "value": -0.102},
      {"measurement": "glycan array binding signal (z-score)", "setting": "[20]", "value": -0.057},
      {"measurement": "glycan array binding signal (z-score)", "setting": "Gal(a1-3)GalNAc", "value": -0.38},
      {"measurement": "glycan array binding signal (z-score)", "setting": "[21]", "value": 0.669},
      {"measurement": "glycan array binding signal (z-score)", "setting": "[22]", "value": 0.916},
      {"measurement": "glycan array binding signal (z-score)", "setting": "Gal(a1-4)Gal(b1-4)Glc", "value": -0.027},
      {"measurement": "glycan array binding signal (z-score)", "setting": "Gal(a1-4)Gal(b1-4)GlcNAc", "value": -0.183},
      {"measurement": "glycan array binding signal (z-score)", "setting": "[23]", "value": 0.327},
      {"measurement": "glycan array binding signal (z-score)", "setting": "[24]", "value": -0.093},
      {"measurement": "glycan array binding signal (z-score)", "setting": "Gal(a1-4)GlcNAc", "value": -0.125},
      {"measurement": "glycan array binding signal (z-score)", "setting": "Gal(a1-6)Glc", "value": 1.53},
      {"measurement": "glycan array binding signal (z-score)", "setting": "Gal(b1-2)Gal", "value": -0.149},
      {"measurement": "glycan array binding signal (z-score)", "setting": "Gal(b1-3)Gal", "value": -0.331},
      {"measurement": "glycan array binding signal (z-score)", "setting": "Gal(b1-3)Gal(b1-4)GlcNAc", "value": 0.082},
      {"measurement": "glycan array binding signal (z-score)", "setting": "[25]", "value": 2.62},
      {"measurement": "glycan array binding signal (z-score)", "setting": "Gal(b1-3)GalNAc", "value": -0.065},
      {"measurement": "glycan array binding signal (z-score)", "setting": "[26]", "value": 0.375},
      {"measurement": "glycan array binding signal (z-score)", "setting": "[27]", "value": 0.4},
      {"measurement": "glycan array binding signal (z-score)", "setting": "Gal(b1-3)GalNAc(b1-3)Gal", "value": -0.077}
    ]}
  ]
}
